Laboratory results: the supplement of paper PMC12067093, “Discovery and optimisation of a covalent ligand for TRIM25 and its application to targeted protein ubiquitination” (Chemical Science, 2025)
About 21,000 targets were measured; listed, in parts, are those with the largest changes and a random draw of the rest.

Compound: Cc1cc(ccc1-c1ccccc1)C(=O)N1CCCN(CC1)C(=O)CCl [compound 10]
Experiment: probe-labelled cysteine peptide fold change vs DMSO (competition) (log2 fold change); higher = less target engagement (more negative = stronger competition)
Details: THP-1, incubation time: 4 h
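Further: competitive profiling in live THP-1 cells: cysteine peptides tagged with an iodoacetamide desthiobiotin (IA-DTB) probe, intensity after compound treatment relative to DMSO-treated cells.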

Chain of UniProt Q9ULE6 (Q9ULE6 whole entry, looked up): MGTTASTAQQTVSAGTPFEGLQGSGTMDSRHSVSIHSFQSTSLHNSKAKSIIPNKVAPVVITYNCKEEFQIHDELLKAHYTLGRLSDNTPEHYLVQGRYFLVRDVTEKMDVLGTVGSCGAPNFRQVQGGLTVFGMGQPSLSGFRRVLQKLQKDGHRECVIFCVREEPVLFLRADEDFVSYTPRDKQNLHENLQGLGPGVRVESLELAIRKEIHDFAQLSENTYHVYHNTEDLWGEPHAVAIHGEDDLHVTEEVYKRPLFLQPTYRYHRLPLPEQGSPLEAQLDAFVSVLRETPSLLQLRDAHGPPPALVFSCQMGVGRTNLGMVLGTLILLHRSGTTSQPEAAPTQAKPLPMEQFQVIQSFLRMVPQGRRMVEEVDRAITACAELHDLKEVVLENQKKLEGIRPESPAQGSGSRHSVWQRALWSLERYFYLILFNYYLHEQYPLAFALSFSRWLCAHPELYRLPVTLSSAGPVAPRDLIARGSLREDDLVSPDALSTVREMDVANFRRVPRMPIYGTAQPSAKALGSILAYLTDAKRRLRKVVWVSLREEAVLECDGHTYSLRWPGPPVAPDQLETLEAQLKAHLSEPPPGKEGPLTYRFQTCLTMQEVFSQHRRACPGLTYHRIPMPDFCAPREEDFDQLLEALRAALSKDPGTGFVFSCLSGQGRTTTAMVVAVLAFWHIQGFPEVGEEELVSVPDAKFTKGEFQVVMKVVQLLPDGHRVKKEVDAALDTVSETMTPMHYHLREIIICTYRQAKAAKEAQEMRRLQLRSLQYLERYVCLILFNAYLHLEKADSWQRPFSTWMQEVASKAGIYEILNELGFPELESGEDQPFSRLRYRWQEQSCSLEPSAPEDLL
Chain of UniProt Q9NQR4 (Q9NQR4 whole entry, looked up): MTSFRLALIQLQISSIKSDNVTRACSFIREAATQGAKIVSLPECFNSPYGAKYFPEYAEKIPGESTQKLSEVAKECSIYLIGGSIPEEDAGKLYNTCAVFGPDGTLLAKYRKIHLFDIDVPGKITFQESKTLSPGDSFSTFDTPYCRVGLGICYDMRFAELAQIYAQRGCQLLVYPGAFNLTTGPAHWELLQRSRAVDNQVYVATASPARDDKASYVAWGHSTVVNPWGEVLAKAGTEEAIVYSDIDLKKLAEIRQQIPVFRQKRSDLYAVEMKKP
Chain of UniProt Q86Y39 (Q86Y39 whole entry, looked up): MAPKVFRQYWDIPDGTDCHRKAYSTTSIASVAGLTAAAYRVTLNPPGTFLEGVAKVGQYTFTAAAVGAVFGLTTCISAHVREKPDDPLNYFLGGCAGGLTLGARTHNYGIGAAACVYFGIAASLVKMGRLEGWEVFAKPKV
Chain of UniProt Q99497 (Q99497 whole entry, looked up): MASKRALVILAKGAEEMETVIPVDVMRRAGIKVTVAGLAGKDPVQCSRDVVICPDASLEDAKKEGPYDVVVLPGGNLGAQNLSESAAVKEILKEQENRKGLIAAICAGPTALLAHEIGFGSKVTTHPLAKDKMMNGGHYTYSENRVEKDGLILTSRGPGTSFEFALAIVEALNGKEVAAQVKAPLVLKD
Chain of UniProt O95340 (O95340 whole entry, looked up): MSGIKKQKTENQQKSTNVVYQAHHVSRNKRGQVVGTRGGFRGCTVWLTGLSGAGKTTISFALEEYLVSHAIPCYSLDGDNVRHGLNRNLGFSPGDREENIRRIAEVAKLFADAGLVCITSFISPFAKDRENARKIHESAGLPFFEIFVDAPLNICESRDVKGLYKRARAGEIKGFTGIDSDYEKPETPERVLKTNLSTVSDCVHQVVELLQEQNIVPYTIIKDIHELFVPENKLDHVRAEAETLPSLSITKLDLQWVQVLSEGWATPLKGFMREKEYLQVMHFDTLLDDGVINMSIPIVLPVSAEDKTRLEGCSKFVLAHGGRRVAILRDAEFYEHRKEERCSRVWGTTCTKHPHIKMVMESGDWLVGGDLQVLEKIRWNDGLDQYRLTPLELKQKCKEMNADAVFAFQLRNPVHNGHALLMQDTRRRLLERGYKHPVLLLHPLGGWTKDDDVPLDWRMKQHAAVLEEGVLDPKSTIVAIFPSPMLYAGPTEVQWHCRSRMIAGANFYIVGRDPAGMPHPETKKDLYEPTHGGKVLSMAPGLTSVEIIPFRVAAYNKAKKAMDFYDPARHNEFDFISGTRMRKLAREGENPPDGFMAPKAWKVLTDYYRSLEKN
Chain of UniProt Q9Y2I1 (Q9Y2I1 whole entry, looked up): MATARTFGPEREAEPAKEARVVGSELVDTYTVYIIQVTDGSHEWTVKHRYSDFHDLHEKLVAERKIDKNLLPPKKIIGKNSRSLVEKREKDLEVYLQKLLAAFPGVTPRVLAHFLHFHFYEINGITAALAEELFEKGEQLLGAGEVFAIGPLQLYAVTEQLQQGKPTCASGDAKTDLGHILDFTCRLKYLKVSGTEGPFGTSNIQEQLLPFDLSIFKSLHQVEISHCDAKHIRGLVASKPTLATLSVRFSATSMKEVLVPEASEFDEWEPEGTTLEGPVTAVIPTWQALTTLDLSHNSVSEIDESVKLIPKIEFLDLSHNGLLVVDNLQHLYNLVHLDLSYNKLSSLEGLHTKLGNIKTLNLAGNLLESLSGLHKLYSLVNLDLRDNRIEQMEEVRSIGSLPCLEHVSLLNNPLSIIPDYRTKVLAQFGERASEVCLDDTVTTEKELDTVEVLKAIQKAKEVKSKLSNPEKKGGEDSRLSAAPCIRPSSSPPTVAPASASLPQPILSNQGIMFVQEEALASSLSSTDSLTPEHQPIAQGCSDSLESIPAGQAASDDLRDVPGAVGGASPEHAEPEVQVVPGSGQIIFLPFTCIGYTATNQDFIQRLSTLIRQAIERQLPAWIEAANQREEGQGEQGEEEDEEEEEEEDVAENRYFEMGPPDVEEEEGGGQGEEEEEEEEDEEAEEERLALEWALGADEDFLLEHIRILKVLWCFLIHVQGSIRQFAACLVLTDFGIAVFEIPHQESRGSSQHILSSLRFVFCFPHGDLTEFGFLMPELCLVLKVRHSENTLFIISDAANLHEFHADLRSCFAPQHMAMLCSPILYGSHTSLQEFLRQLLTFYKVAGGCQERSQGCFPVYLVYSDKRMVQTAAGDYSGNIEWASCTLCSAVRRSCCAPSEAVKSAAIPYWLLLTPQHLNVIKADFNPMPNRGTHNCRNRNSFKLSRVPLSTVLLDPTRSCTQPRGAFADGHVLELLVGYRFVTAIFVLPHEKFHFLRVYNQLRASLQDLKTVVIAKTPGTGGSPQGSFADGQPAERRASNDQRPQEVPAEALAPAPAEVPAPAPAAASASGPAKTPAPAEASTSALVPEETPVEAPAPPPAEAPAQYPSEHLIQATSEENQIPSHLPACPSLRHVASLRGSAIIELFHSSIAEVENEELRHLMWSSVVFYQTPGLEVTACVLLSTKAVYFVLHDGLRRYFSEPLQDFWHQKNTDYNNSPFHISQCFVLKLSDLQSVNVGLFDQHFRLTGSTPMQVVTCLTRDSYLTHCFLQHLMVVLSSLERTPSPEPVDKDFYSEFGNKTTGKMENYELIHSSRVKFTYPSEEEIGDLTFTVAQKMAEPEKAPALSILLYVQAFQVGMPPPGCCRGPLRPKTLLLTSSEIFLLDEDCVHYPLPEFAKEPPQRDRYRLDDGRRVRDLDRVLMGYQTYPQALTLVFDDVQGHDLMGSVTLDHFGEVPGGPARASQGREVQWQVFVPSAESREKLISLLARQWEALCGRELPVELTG
Chain of UniProt Q9NVE7 (Q9NVE7 whole entry, looked up): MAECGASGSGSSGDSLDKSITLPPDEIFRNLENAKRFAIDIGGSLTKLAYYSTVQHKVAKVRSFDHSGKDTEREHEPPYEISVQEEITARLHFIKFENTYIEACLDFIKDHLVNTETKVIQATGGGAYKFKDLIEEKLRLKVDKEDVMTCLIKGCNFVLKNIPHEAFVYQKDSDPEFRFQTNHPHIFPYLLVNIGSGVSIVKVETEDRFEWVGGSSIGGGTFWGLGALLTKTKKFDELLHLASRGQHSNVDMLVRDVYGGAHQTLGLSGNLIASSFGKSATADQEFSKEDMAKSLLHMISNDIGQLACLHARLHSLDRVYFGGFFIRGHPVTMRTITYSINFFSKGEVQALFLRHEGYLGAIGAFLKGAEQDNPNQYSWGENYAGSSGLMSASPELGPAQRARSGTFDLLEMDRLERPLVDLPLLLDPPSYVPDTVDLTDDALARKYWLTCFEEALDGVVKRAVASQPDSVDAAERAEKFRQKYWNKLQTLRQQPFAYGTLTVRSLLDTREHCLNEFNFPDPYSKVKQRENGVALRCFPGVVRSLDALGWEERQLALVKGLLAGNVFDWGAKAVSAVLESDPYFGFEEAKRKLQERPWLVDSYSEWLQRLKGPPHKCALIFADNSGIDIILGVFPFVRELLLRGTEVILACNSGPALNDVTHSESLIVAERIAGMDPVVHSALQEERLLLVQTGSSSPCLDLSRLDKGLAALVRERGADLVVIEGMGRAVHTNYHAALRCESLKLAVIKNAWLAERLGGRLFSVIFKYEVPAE
Chain of UniProt P43490 (P43490 whole entry, looked up): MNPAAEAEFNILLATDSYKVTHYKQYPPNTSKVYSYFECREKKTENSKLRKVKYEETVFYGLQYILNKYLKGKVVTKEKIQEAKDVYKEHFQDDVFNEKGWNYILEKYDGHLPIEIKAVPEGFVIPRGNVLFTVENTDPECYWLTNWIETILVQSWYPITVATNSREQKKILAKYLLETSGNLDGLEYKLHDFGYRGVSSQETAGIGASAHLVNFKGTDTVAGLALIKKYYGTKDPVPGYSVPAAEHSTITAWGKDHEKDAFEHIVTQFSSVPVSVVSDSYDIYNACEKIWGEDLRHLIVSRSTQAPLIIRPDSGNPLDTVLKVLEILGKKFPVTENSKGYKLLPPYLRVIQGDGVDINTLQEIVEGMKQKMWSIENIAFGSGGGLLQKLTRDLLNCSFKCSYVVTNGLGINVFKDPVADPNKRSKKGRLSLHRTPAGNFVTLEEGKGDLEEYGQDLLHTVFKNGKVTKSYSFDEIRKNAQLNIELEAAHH
Chain of UniProt Q56VL3 (Q56VL3 whole entry, looked up): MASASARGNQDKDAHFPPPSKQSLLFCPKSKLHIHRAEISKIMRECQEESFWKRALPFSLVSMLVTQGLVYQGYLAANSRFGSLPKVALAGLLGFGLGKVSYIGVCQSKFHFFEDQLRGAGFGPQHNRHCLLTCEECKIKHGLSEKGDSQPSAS

Which results are given for “NAMPT_P43490_397_DLLNCSFK (UniProt P43490)”?
probe-labelled cysteine peptide fold change (10 µM): 0.116; probe-labelled cysteine peptide fold change (50 µM): -0.122

What does the source list for “NOTCH1_P46531_1295_VNDFHCECR (UniProt P46531)”?
probe-labelled cysteine peptide fold change (10 µM): -0.0235; probe-labelled cysteine peptide fold change (50 µM): -0.102

“OCRL_Q01968_370_FVFHNTTFCIVNSHLAAHVEDFER (UniProt Q01968)” was tested. Which “probe-labelled cysteine peptide fold change” value (10 µM) did it give?
Its value is 0.205.

And the “probe-labelled cysteine peptide fold change” value (50 µM)?
The value was 0.4.

What does the source list for “OTULINL_Q9NUU6_226_GSMCNTLFSDAILEYK (UniProt Q9NUU6)”?
probe-labelled cysteine peptide fold change (10 µM): -0.0829; probe-labelled cysteine peptide fold change (50 µM): 0.208

“NDUFA11_Q86Y39_18_QYWDIPDGTDCHR (UniProt Q86Y39)” was tested. Which “probe-labelled cysteine peptide fold change” value (10 µM) did it give?
Its value is 0.125.

And the “probe-labelled cysteine peptide fold change” value (50 µM)?
The value was 0.21.

With “NOTCH1_P46531_1345_CPAGFEGATCENDAR (UniProt P46531)” as the target, how does the “probe-labelled cysteine peptide fold change” value (10 µM) read?
The value was -0.339.

And the “probe-labelled cysteine peptide fold change” value (50 µM)?
Its value is -0.0307.

“PARK7_Q99497_106_GLIAAICAGPTALLAHEIGFGSK (UniProt Q99497)” was tested. Which “probe-labelled cysteine peptide fold change” value (10 µM) did it give?
The value was -0.496.

And the “probe-labelled cysteine peptide fold change” value (50 µM)?
The value was -2.74.

“NT5DC1_Q5TFE4_62+63_ELLNVTPEDWDFCCK (UniProt Q5TFE4)” was tested. Which “probe-labelled cysteine peptide fold change” value (10 µM) did it give?
Its value is 0.0814.

And the “probe-labelled cysteine peptide fold change” value (50 µM)?
Its value is -0.241.

With “PARP10_Q53GL7_1004_YDSAVDCICQPSIFVIFHDTQALPTHLITCEHVPR (UniProt Q53GL7)” as the target, how does the “probe-labelled cysteine peptide fold change” value (10 µM) read?
Its value is -0.486.

What about the “probe-labelled cysteine peptide fold change” value (50 µM) of the same target?
Its value is -1.15.

How did the “probe-labelled cysteine peptide fold change” value (10 µM) turn out when “OTULINL_Q9NUU6_177_LLFSQGCNWIQQYSFGPEK (UniProt Q9NUU6)” was run?
Its value is -0.101.

And the “probe-labelled cysteine peptide fold change” value (50 µM)?
The value was -0.0508.

Which results are given for “OFD1_O75665_157_ESCNMETQTSSTFNR (UniProt O75665)”?
probe-labelled cysteine peptide fold change (10 µM): -0.197; probe-labelled cysteine peptide fold change (50 µM): -0.205

How did the “probe-labelled cysteine peptide fold change” value (10 µM) turn out when “NIT2_Q9NQR4_153_VGLGICYDMR (UniProt Q9NQR4)” was run?
The value was -0.849.

What about the “probe-labelled cysteine peptide fold change” value (50 µM) of the same target?
Its value is -3.

For “NPEPL1_Q8NDH3_414_CGDLVHPLVYCPELHFSEFTSAVADMK (UniProt Q8NDH3)”, which “probe-labelled cysteine peptide fold change” value (10 µM) is on record?
The value was -0.0627.

And the “probe-labelled cysteine peptide fold change” value (50 µM)?
Its value is -0.0815.

For “NOL8_Q76FK4_630_HEDPSIISMEDGSPYVNGSLGEVTPCQHAK (UniProt Q76FK4)”, which “probe-labelled cysteine peptide fold change” value (10 µM) is on record?
The value was -0.0436.

And the “probe-labelled cysteine peptide fold change” value (50 µM)?
Its value is -0.297.

“NR3C1_P04150_457_AVEGQHNYLCAGR (UniProt P04150)” was tested. Which “probe-labelled cysteine peptide fold change” value (10 µM) did it give?
The value was -0.218.

And the “probe-labelled cysteine peptide fold change” value (50 µM)?
The value was -0.294.

Which results are given for “PALD1_Q9ULE6_118_MDVLGTVGSCGAPNFR (UniProt Q9ULE6)”?
probe-labelled cysteine peptide fold change (10 µM): -0.214; probe-labelled cysteine peptide fold change (50 µM): 0.00454

Which results are given for “NCDN_Q9UBB6_725_MAALEQCLSEP (UniProt Q9UBB6)”?
probe-labelled cysteine peptide fold change (10 µM): -0.0326; probe-labelled cysteine peptide fold change (50 µM): 0.207

Which “probe-labelled cysteine peptide fold change” value (10 µM) does the source give for “NUP37_Q8NFH4_172_IWNLEGVQTAHFVLHSPGMSVCWHPEETFK (UniProt Q8NFH4)” here?
The value was 0.129.

What about the “probe-labelled cysteine peptide fold change” value (50 µM) of the same target?
Its value is 0.142.

For “PAIP1_Q9H074_318_ELLNALFSNPMDDNLICAVK (UniProt Q9H074)”, which “probe-labelled cysteine peptide fold change” value (10 µM) is on record?
Its value is 0.025.

What about the “probe-labelled cysteine peptide fold change” value (50 µM) of the same target?
Its value is -0.0474.

“NSUN6_Q8TEA1_242_ILDLCAAPGGK (UniProt Q8TEA1)” was tested. Which “probe-labelled cysteine peptide fold change” value (10 µM) did it give?
The value was -0.181.

And the “probe-labelled cysteine peptide fold change” value (50 µM)?
The value was 0.0653.

Which “probe-labelled cysteine peptide fold change” value (10 µM) does the source give for “NUMA1_Q14980_1907_NSFYMGTCQDEPEQLDDWNR (UniProt Q14980)” here?
The value was -0.0197.

And the “probe-labelled cysteine peptide fold change” value (50 µM)?
Its value is -0.403.

How did the “probe-labelled cysteine peptide fold change” value (10 µM) turn out when “NPM3_O75607_79_DECNVVEVVAR (UniProt O75607)” was run?
Its value is 0.189.

What about the “probe-labelled cysteine peptide fold change” value (50 µM) of the same target?
The value was 0.498.

For “NISCH_Q9Y2I1_935_GTHNCR (UniProt Q9Y2I1)”, which “probe-labelled cysteine peptide fold change” value (10 µM) is on record?
The value was -0.272.

And the “probe-labelled cysteine peptide fold change” value (50 µM)?
Its value is -2.06.

Which results are given for “P4HB_P07237_397+400_NVFVEFYAPWCGHCK (UniProt P07237)”?
probe-labelled cysteine peptide fold change (10 µM): -0.47; probe-labelled cysteine peptide fold change (50 µM): -1.51

Which “probe-labelled cysteine peptide fold change” value (10 µM) does the source give for “OCIAD2_Q56VL3_27_QSLLFCPK (UniProt Q56VL3)” here?
The value was -0.259.

And the “probe-labelled cysteine peptide fold change” value (50 µM)?
Its value is -1.11.

Which results are given for “NAA38_Q9BRA0_17_EENGCCSR (UniProt Q9BRA0)”?
probe-labelled cysteine peptide fold change (10 µM): -0.19; probe-labelled cysteine peptide fold change (50 µM): -1.1

How did the “probe-labelled cysteine peptide fold change” value (10 µM) turn out when “NFXL1_Q6ZNB6_705_AGPECLHCEEGCSK (UniProt Q6ZNB6)” was run?
The value was -0.0128.

And the “probe-labelled cysteine peptide fold change” value (50 µM)?
Its value is -0.0864.

With “OSBPL11_Q9BXB4_34_NSSCGGGISSSSSSR (UniProt Q9BXB4)” as the target, how does the “probe-labelled cysteine peptide fold change” value (10 µM) read?
Its value is -0.246.

And the “probe-labelled cysteine peptide fold change” value (50 µM)?
Its value is -1.2.

With “PANK4_Q9NVE7_513_EHCLNEFNFPDPYSK (UniProt Q9NVE7)” as the target, how does the “probe-labelled cysteine peptide fold change” value (10 µM) read?
The value was -0.0863.

And the “probe-labelled cysteine peptide fold change” value (50 µM)?
The value was -0.358.

For “NKTR_P30414_173_VIDCGVLATK (UniProt P30414)”, which “probe-labelled cysteine peptide fold change” value (10 µM) is on record?
The value was -0.147.

And the “probe-labelled cysteine peptide fold change” value (50 µM)?
Its value is -0.203.

“NCDN_Q9UBB6-2_5_ASDCEPALNQAEGR (UniProt Q9UBB6)” was tested. Which “probe-labelled cysteine peptide fold change” value (10 µM) did it give?
The value was -0.0631.

What about the “probe-labelled cysteine peptide fold change” value (50 µM) of the same target?
The value was 0.014.

Which results are given for “NPTX1_Q15818_89_CESQSTLDPGAGEAR (UniProt Q15818)”?
probe-labelled cysteine peptide fold change (10 µM): -0.365; probe-labelled cysteine peptide fold change (50 µM): 0.0326

What does the source list for “NCDN_Q9UBB6_98_EAPDGCPDHVLR (UniProt Q9UBB6)”?
probe-labelled cysteine peptide fold change (10 µM): -0.102; probe-labelled cysteine peptide fold change (50 µM): -0.415

Which “probe-labelled cysteine peptide fold change” value (10 µM) does the source give for “NPEPL1_Q8NDH3_311_DNLHAVFCLAENSVGPNATRPDDIHLLYSGK (UniProt Q8NDH3)” here?
Its value is 0.19.

What about the “probe-labelled cysteine peptide fold change” value (50 µM) of the same target?
The value was 0.0596.

With “NLE1_Q9NVX2_152_FWDLSTETPHFTCK (UniProt Q9NVX2)” as the target, how does the “probe-labelled cysteine peptide fold change” value (10 µM) read?
The value was 0.126.

And the “probe-labelled cysteine peptide fold change” value (50 µM)?
The value was 0.171.

With “MYO19_Q96H55_755_VFMTDSMLELLECGR (UniProt Q96H55)” as the target, how does the “probe-labelled cysteine peptide fold change” value (10 µM) read?
The value was -0.495.

And the “probe-labelled cysteine peptide fold change” value (50 µM)?
Its value is -1.33.

Which “probe-labelled cysteine peptide fold change” value (10 µM) does the source give for “PAPSS2_O95340_497_STIVAIFPSPMLYAGPTEVQWHCR (UniProt O95340)” here?
Its value is 0.259.

And the “probe-labelled cysteine peptide fold change” value (50 µM)?
Its value is 0.286.

For “PARP10_Q53GL7_981+983+1004_YDSAVDCICQPSIFVIFHDTQALPTHLITCEHVPR (UniProt Q53GL7)”, which “probe-labelled cysteine peptide fold change” value (10 µM) is on record?
Its value is -0.073.

What about the “probe-labelled cysteine peptide fold change” value (50 µM) of the same target?
The value was -0.214.
